Source: PubChem BioAssay AID504832 (National Center for Advancing Translational Sciences (NCATS), 2011)
Among all 310,000 compounds or so, about 18,000 (5.8%) were called active. The shares of active, inactive and inconclusive entries below differ from those in the screen. The call rests on the fitted dose curve; in most records, active means well fitted inhibition curve with a large enough effect; inconclusive means small, poorly fitted or top-dose-only effect, or another doubt; inactive means no such curve, though single readings can be large or run the other way. No potency is given beside an inconclusive call; the fits are too rough.

assay: Primary qHTS for delayed death inhibitors of the malarial parasite plastid, 48 hour incubation; details: P. falciparum luciferase growth in erythrocytes; series mostly up to 28.7 µM; activity change, negative = inhibition: at the top concentration
How it was run: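 A one-generation exposure of luciferase-tagged malaria parasites in RPMI 1640/Albumax erythrocyte culture, 37 C and 5% CO2. Inhibition is inferred from decreased luminescence after adding detection reagent.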
On the % scale 0 is the no-effect control and ±100 the full control effect; potency means the concentration at half of the fitted maximal effect; tags describe the fitted curve by direction and shape.

Row | SMILES | Potency | activity change, negative = inhibition
1 | CN(c1ccccc1)S(=O)(=O)c1ccc(Cl)c(C(=O)NCC(c2ccco2)N2CCCC2)c1 (stereo not given) | inconclusive [inhibitor, partial curve] | 
2 | CC(C)(C)[C@H](NC(=O)c1ccc(N)c(Cl)c1)C(=O)N1CCC[C@H]1C(=O)N[C@H](C#N)Cc1nn[nH]n1 | inconclusive [inhibitor, single point] | 
3 | O=C1C2CCCN2C(c2ccncc2)N1c1ccc(Cl)c(Cl)c1 (stereo not given) | active: 13.1 µM | 
4 | CCCN(CCC)Cc1c(C(=O)OCC)nnn1-c1nonc1N | inconclusive [inhibitor, full curve, poor fit] | 
5 | Cn1c(Cc2nc3ccccc3n2C)nc2ccccc21 | inconclusive [inhibitor, single point] | 
6 | COc1ccccc1/C=C/C=N\N1CCN(Cc2ccccc2Cl)CC1 | inconclusive [inhibitor, single point] | 
7 | O=Nc1c(-c2cccc([N+](=O)[O-])c2)nc2ncccn12 | inconclusive [inhibitor, full curve, poor fit] | 
8 | Cc1cc(C)cc(NC(=S)NC2CC3CCC(C2)N3Cc2ccco2)c1 (stereo not given) | inconclusive [inhibitor, single point] | 
9 | O=C(CN1CCCCC1)Nc1nc(-c2ccc(Cl)cc2)cs1 |  | inactive: -7.45%
10 | CCC(C)[C@H](NC(=O)N1CCn2c1nc1ccccc12)C(=O)NCCc1ccccc1 (stereo not given in full) | inconclusive [inhibitor, single point] | 
11 | COCC(C)n1c(SCC(=O)N2CC(=O)Nc3ccccc32)nc2ccccc2c1=O (stereo not given) | active: 13.1 µM | 
12 | Cc1ccc(NC(=O)C2CC(O)CN2C(=O)OCc2ccccc2)cc1C (stereo not given) | inconclusive [inhibitor, full curve, poor fit] | 
13 | CCCCNC(=S)N/N=C/C1=CCC2CC1C2(C)C (stereo not given) | active: 9.28 µM | 
14 | CCCNC(=O)c1c(N)n(Cc2ccco2)c2nc3ccccc3nc12 | inconclusive [inhibitor, single point] | 
15 | CC1CCCN(S(=O)(=O)c2ccc(C(=O)Nc3nnc(C4=COCCO4)o3)cc2)C1 (stereo not given) |  | inactive: -26%
16 | CCCCCC(=O)N(O)C1CC(=O)N(c2ccccc2)C1=O (stereo not given) | active: 10.4 µM | 
17 | O=C(CSc1nc2ccccc2[nH]1)Nc1ccc(F)c(F)c1 |  | inactive: -1.92%
18 | CC1CCN(Cc2c(O)ccc3c2O/C(=C\c2ccco2)C3=O)CC1 | active: 14.7 µM | 
19 | O=C(COC(=O)c1ccccc1O)Nc1cccc(S(=O)(=O)N2CCCC2)c1 | inconclusive [inhibitor, single point] | 
20 | Cc1nn(C)c(C)c1S(=O)(=O)N1CCCC(C(=O)N2CCN(c3ccc(Cl)cc3)CC2)C1 (stereo not given) | active: 4.65 µM | 
21 | CCCCN1CCc2c([nH]c3ccc(C)cc23)C1=O |  | inactive: 161%
22 | Cc1nc(C(=O)NCCC(C)C)sc1C1(C)CC(c2ccccc2)=NO1 (stereo not given) |  | inactive: -22.2%
23 | CCOC(=O)C(NC(=O)c1ccccc1)=C1CCCCC1 | inconclusive [inhibitor, full curve, poor fit] | 

Row | SMILES | Potency | activity change, negative = inhibition
24 | Cc1cc(C)cc(-n2c(C)cc(/C=N/NC(=O)c3ccncc3)c2C)c1 | inconclusive [inhibitor, partial curve, poor fit] | 
25 | COc1ccc(OC)c(CN2CCCC(C(=O)c3ccccc3SC)C2)c1 (stereo not given) | inconclusive [inhibitor, single point] | 
26 | O=C(Nc1cc([N+](=O)[O-])ccc1Cl)C(Sc1ccccc1)c1ccccc1 (stereo not given) |  | inactive: -5.53%
27 | CCC(=O)c1ccc(OCC(=O)Nc2ccccc2N2CCOCC2)cc1 | inconclusive [inhibitor, partial curve] | 
28 | O=C(CC1C(=O)NC2CCCCC2N1C(=O)c1ccc(F)cc1)Nc1ccccc1 (stereo not given) | inconclusive [inhibitor, partial curve] | 
29 | O=C(O)C1CCN(c2ccc(S(=O)(=O)N3CCOCC3)cc2[N+](=O)[O-])CC1 |  | inactive: 9.86%
30 | O=S(=O)(NC1CCCCC1N1CCOCC1)c1ccc(Cl)cc1 (stereo not given) |  | inactive: 7.4%
31 | COc1ccc(OC)c(N/C(C)=C/C(=O)c2ccc(C)o2)c1 | inconclusive [inhibitor, single point] | 
32 | CCN(C(=O)CSc1nnc(CNc2cccc(OC)c2)n1C1CCCCC1)C1CCS(=O)(=O)C1 (stereo not given) | inconclusive [inhibitor, full curve, poor fit] | 
33 | CC1CCN(c2ccccc2NC(=S)NC(=O)c2cccs2)CC1 | inconclusive [inhibitor, single point] | 
34 | COc1ccccc1/C=C/C=N/n1c(-c2cc(-c3ccccc3)n[nH]2)n[nH]c1=S | inconclusive [inhibitor, partial curve, poor fit] | 
35 | CCOc1ccc(CCNC(=O)c2nn(C)c3c2CS(=O)(=O)c2ccccc2-3)cc1 | inconclusive [inhibitor, partial curve, poor fit] | 
36 | Cn1c(SCc2c(Cl)cccc2Cl)nnc1-c1ccc2nonc2c1 | inconclusive [inhibitor, single point] | 
37 | S=c1[nH]nc(-c2ccncc2)n1/N=C/c1cn(-c2ccccc2)nc1-c1ccccc1 | inconclusive [inhibitor, single point] | 
38 | CS(=O)(=O)Nc1ccc(-c2cn3cccnc3n2)cc1 |  | inactive: 29.3%
39 | O=C(CC1c2ccccc2Oc2ccccc21)Nc1ccccc1C(F)(F)F |  | inactive: -3.84%
40 | Cc1ccc(OCCn2cc(C(=S)N3CCCC3)c3ccccc32)cc1C | inconclusive [inhibitor, partial curve] | 
41 | CC(C)NC(=O)c1nc2c(nnn2Cc2cccc(Cl)c2)c(=O)[nH]1 |  | inactive: 14.6%
42 | CN(C)c1cccc(C(=O)NNC(=O)/C=C/c2cccs2)c1 |  | inactive: 9.79%
43 | Nc1ccccc1C(=O)OCC(=O)Nc1ccc(Br)cc1F |  | inactive: 50.2%
44 | CC1Sc2ccc(S(=O)(=O)N3CCC(C(=O)N(C)Cc4ccco4)CC3)cc2NC1=O (stereo not given) | active: 11.7 µM | 
45 | CCn1c(/C=C/Nc2ccccc2)[n+](CC)c2ccc(Cl)cc21 | inconclusive [inhibitor, single point] | 
